Measured values from the RNAGym collection of RNA variant scans (doi:10.1073/pnas.2313332121).
Variants at the floor of the assay are shown more often than the library holds them.

B1: TPR 5TU (parent)
chain: GGAUCUUCUCGAUCUAACAAAAAAGACAAAUCUGCCACAAAGCUUGAGAGCAUCUUCGGAUGCAGAGGCGGCAGCCUUCGGUGGCGCGAUAGCGCCAACGUUCUCAACUAUGACACGCAAAACGCGUGCUCCGUUGAAUGGAGUUUAUCAUG

Variants of: B1
Experiment: polymerase ribozyme fitness, log enrichment relative to wild type (log ratio); higher = more active; in vitro selection for triplet polymerase activity
Method in brief: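 Mutant libraries for each subunit of a heterodimeric triplet polymerase ribozyme were made by PCR and then transcribed. Each library underwent one round of in vitro selection in triplicate: annealing with a biotinylated primer, the partner subunit and triplets, frozen incubation at −7 °C, gel excision of extended constructs, streptavidin-bead capture and RT-PCR. Input and output libraries were Illumina-sequenced, and only genotypes with ≥10 input reads and ≥1 read per output were kept. Fitness is the logarithm, base 2, of genotype enrichment over wild-type enrichment, computed from inverse-variance-weighted replicate averages.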

Variant	polymerase ribozyme fitness (log ratio)
A17C A21G A40U G86U A122U	-1.48
A16G A17U A41U C93U C125U U134G	-4.05
A16U C27G A30U C35G G83A C103U	≤ -4.2
A17U A30G G46A C75U C95U	≤ -4.2
A16U C27G G92A C105A C116U G124U G126A G141C	≤ -4.2
A17U G67C G71C G86A A107U A121U U144G	≤ -4.2
A17C C36A C87A C95U A97C C105U U151G	≤ -4.2
A16U A19U A24C A47C G48C C57A G83A A107U	≤ -4.2
A16C U90C C95U U145A	≤ -4.2
A17G G25A C93U U102G U104G G136U G143U	≤ -4.2
A17U G143U U151C	≤ -4.2
A17C A22C G59A G71U G83C C132A	≤ -4.2
A17U A29C C43G G86A U135C	-4.06
C18A A21U A29U U56A C95A A137G A142C	≤ -4.2
A16G G58C C118U C131G U144G	≤ -4.2
A17G G48A	-1.03
A16U U45A C85A A147G	≤ -4.2
A16G A22U G94A	-0.896
A16G C35U	-1.36
A17U C18G A21G A52C U53C C57U C87A G141A	≤ -4.2
C18A A22C A26U A40G C51U U55G A73C G81U G86U U90C U109C	≤ -4.2
A16G A41C U55G A142C	-3.52
A17G G70A C75G C96U C99G	-4.15
A17C A110U	-4

Variant	polymerase ribozyme fitness (log ratio)
A16U G46U G59C C76G G84U C85U U102C A138U	≤ -4.2
A17G C72U A147C	-0.924
A16U A19C A23C C51U C93A U135C U151G	≤ -4.2
A17G U53A	-0.401
A16G C87U	-1.85
A17U C32U C54U C149U	≤ -4.2
A17U U31G A37U G48A A49U G59A A60C G62U C93G A121U	≤ -4.2
C18A A19G U33C C54G G81U G84A	≤ -4.2
A16G C43G U61G	≤ -4.2
A17C G34C G83U G124U C125G A137C	≤ -4.2
A16U C35U A40C C63U G92A G94A G124A	≤ -4.2
A17C A26C U61G U77A C79U C95G	≤ -4.2
A16G C51A U55A C72U G84C G88U C116A G133C A147U U151A	≤ -4.2
A17U C87U C96U U104C A107U G141U	≤ -4.2
A16C U101G	-0.303
A17C G59C U102G C123A	-2.05
A17U C76G A91C C108G	≤ -4.2
A16U A17U A26U C27G A49U C54A A66U C85A C116G	-3.74
A17C A29U C51U C95U A107U C114U G143C U145G	≤ -4.2
A17G C38U C69U A97U C114A	≤ -4.2
A17C A19U A20C A29U A47C C51U U77C C85G C114G A122C	≤ -4.2
A16U G62U A64U G68C A91U G92C C116G G141C U151G	≤ -4.2
A17G A39G C79G A89U C96G A142U	≤ -4.2
A16U A22U A64U G94A G117A C132A U151G	≤ -4.2

Variant	polymerase ribozyme fitness (log ratio)
A17C C18U G48A G71A A91G U102C	≤ -4.2
A17G C54U G59A C72U G88A A147G	≤ -4.2
A16U C108U C114U U135A	≤ -4.2
A16U A22U A52C C54G C93G G94U C96G C125G U148G	≤ -4.2
A16U A28U A37C G42U U56A C95A U145A C149G	≤ -4.2
A17U G50A	-2.57
A16G C93G A113U	≤ -4.2
A17U A19G A30G C38G U45A G88U	≤ -4.2
A17C U82A C85A C93U	≤ -4.2
A17C A22G G42A A49G U56G A64G C85A U90G	≤ -4.2
A17G C79A C87A G88A C99U A119C C149G	≤ -4.2
A16U G74U	≤ -4.2
A17U A19G A37C G59A U61A C76U G94U G124A	≤ -4.2
A16U A28U G59A A110G C125G	≤ -4.2
A17U G42U C76U C79U C87A	≤ -4.2
A17U A49U A52C C57A C96G C114G U127G	≤ -4.2
A17G A39C G83U C87U G100C U135C	≤ -4.2
A17C A23U U45A G46C C85U A119G C123A G133C U146C	≤ -4.2
A17U C36U C103G C114A C123G C131A	≤ -4.2
A17C G42A C85U C95U G124U G136U C149U	≤ -4.2
A16G A26U G50C A66G C87G	≤ -4.2
A16G A49C G58C G83C	≤ -4.2
A16U A47C	-2.04
A16U A23G C27U A47G G74A G86A	≤ -4.2

Variant	polymerase ribozyme fitness (log ratio)
A17C A28G C35G G84A	≤ -4.2
A16U C76A A91G C118U	≤ -4.2
A17C A22C G42C A91U C95A U127G	≤ -4.2
A17C A30G C43G C95A A142C	≤ -4.2
A16G G74A C79U G88A A91U G100A U104G U146G	≤ -4.2
A17G A26U A29U G42A G94U A110G A115U G140A	≤ -4.2
A17G U55C A89C G112U	≤ -4.2
A16G A47C U53C U102G	≤ -4.2
A17G G133U	-3.47
A17U C35U G81U G84A A91C G92A U127C G143A	≤ -4.2
A16U A28G A40U U56A U61A U145A	≤ -4.2
A16U C43G G84C	≤ -4.2
A16G G50C C54G U61A G83C C85U U104G G128U	≤ -4.2
A17G A52G C85G	-2.03
A17U A28U A52C U77A G83A C125G G141C G143A	≤ -4.2
A17U A39C U45A G74C A110U A122U	≤ -4.2
A17C A39U C75U G92C C132A	≤ -4.2
A17U G94C C132U	-1.54
A17U G48A A73G C79G C87A G88A G117A A121C	≤ -4.2
A16U U56A G62A U82G C85U A142G	-4.16
A17C G25A G62U G117U	-2.71
A17G C18G U31G G68A C87U G133U	≤ -4.2
A17U G84A C123G	-0.525
A17C U61G C85U G126A G140U U151A G152C	≤ -4.2

Variant	polymerase ribozyme fitness (log ratio)
A17C A47C G94C	-0.464
A17U G25U U44A G48U C76A C87G A122U G140A	≤ -4.2
A17C G88U C149G	≤ -4.2
A17U A28C A49C	≤ -4.2
A16U A40C A47C A97G C99U A119G C125A G133U U139A	≤ -4.2
A16U C96U	-2.07
A17G G58A G59C C69U C95U U104A	-3.74
A17C A20U A37U U55G G71U G83U A89U A142C	≤ -4.2
A17G C79U C85U C131G	≤ -4.2
A17C G83C C87A G152U	≤ -4.2
A17U C93U G100A A107C G117A A121C U148G C149G	≤ -4.2
A16G C35U C116G	-1.98
A17U A19C C87G A89U	≤ -4.2
A17U A24U A39U U45A G59C U135G C149A	≤ -4.2
A17G G84C	-1.85
A17U A29G G74A U148G	≤ -4.2
A17C A37C C93G	-2.89
A17U A29C A64U C118U U134G	≤ -4.2
A16U A26U G88U A119G C132U	≤ -4.2
A16U C18G C75A G80A C87G U127C A150G U151C	≤ -4.2
A16G C76G C87U A120U A138G	≤ -4.2
A17G A147U	1.55
A16G G83U C87U C93G A142U	≤ -4.2
A17U C93U	-1.07

Variant	polymerase ribozyme fitness (log ratio)
A17C A21U A28G C57A A66G G74C A106C	≤ -4.2
A17U C93A G94U A121U A150G	≤ -4.2
A17C A21U C51U G59C C95U A106U G136C U151G	≤ -4.2
A17C U33C G88A C96U U102G C116U A142U	≤ -4.2
A17G C76U C93A U144C U151G	≤ -4.2
A16G U53G C96U A119C G124C G133C G141C	≤ -4.2
C18A A23G A28C C43U A52C U146A	≤ -4.2
A17C C32G C54A C76G G80A C93A C96A U111A U145G	≤ -4.2
A16U A26U C96U	≤ -4.2
A16U A29U U77G C85G C116U C125A U134C	≤ -4.2
A17G A89G G92A C108G	≤ -4.2
A17C G50C C76A C85U G86C C125G	≤ -4.2
A17G A49U G83U	-3.31
A17C A26U G58U U102A C103A	≤ -4.2
A17C C57A A91G G140A	≤ -4.2
A17G G83U A107U U135C	≤ -4.2
A16G C85U A91C C103U A106G U127C U151A	≤ -4.2
A17U A28C G46U G59C G86C G112C	≤ -4.2
A16U C63G C87A A107U A142C G143A	≤ -4.2
A17C A39U G42A A60G C69A A97C C99A U134C U135A U148G	≤ -4.2
A16G U44A A49C C99A U101C G140A	≤ -4.2
A16U A23U G50A C85G C125U G141C U145C A147G	≤ -4.2
A17U U77G G83C U102G C105A	≤ -4.2
A16U C85U C99A G141C	≤ -4.2

Variant	polymerase ribozyme fitness (log ratio)
C18A A19G G67C C72U G80C U101A C131G A138U	≤ -4.2
A16U A26C U139G U144C	≤ -4.2
A16U G25C A30C G71A C85U C95A C114U	≤ -4.2
A16C U151A	≤ -4.2
A16U G92U	-2.29
A17G G50C	-2.81
A16U C57A C93A U151G	≤ -4.2
A16G U31G A49U	≤ -4.2
A16U C43U C76A G94C G126U U151G	≤ -4.2
A16U G68U C79A G88A	≤ -4.2
A17U G86C A150C	≤ -4.2
A16C G86U	-2.65
A16U U31C C32U C51U U77C C87G C114G	≤ -4.2
A17G G58C C72U G152A	-2.87
A17G A28C C69G U145C U146C U148G	≤ -4.2
A16G U33G G81A C87G G100A	≤ -4.2
A17G A39C A107U	≤ -4.2
A16U U139G G140U	≤ -4.2
A17G G83U U134A	-2.39
A16G G74A C79U C93A C103A	≤ -4.2
A17G C93U	-0.578
A17G G50A U55G A89U C93A	≤ -4.2
A16G A24U G46U C85G A106C U109A C114U C118G A120G	≤ -4.2
